Some of the results follow. Further columns of the screen follow, without active or inactive calls. For some assays here: The list favours compounds with an active or inconclusive main result. For some assays here: Words in brackets tell the shape of the fitted curve; partial curves, single points and poor fits give uncertain potencies.
What was measured:
[1] = qHTS Assay for Lipid Storage Modulators (AID 1519); conditions: Drosophila S3 cells, BODIPY lipid droplet/cell ratio, laser cytometry, cells loaded with oleic acid
In short: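 Cells seeded at 5,000 per well were treated with compounds over a concentration series and loaded with oleic acid (400 uM, as added). Lipid droplet fluorescence (488 nm excitation, 500-530 nm channel) was read by laser-scanning cytometry and normalized to 20 uM Triacsin C.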

[2] = qHTS Assay for Modulators of Human Peripheral Myelin Protein 22 (PMP22) Expression/Activity (AID 1967); conditions: Cell-based PMP22 reporter, dual-color luciferase ratio
In short: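 Engineered MSC80 cells, Pmp22-promoter green and EF-alpha red luciferase reporters; 24h compound treatment at 37 °C. Concentration-response fits on green, red and ratio signals, each overlap-corrected, with %Activity normalized to untreated wells.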

[3] = qHTS Validation Assay to Find Inhibitors of Chronic Active B-Cell Receptor Signaling (AID 485345); conditions: ABC-DLBCL cells, chronic BCR signaling reporter
In short: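 TMD8 ABC-DLBCL cells stably carrying doxycycline-inducible IkappaBalpha–green luciferase fusion plus unfused red luciferase; compounds 46 uM to 3 nM, 4 h at 37C with doxycycline. Corrected green/red luminescence ratio normalized to 10 uM MG-132 and basal cell wells; curves fitted.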

[4] = Nrf2 qHTS screen for inhibitors: Validation (AID 493153); conditions: A549 ARE-Fluc reporter, 18-24 h; AC50: CellTiter-Fluor fluorescence read, measured here: cytotoxicity CellTiter-Fluor AC50; viability change: measured here: cytotoxicity max response
In short: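 Luminescence from an ARE-firefly luciferase reporter in A549 cells gives Nrf2 inhibition; an earlier CellTiter-Fluor fluorescent read flags cytotoxicity. Cells in 5% FBS OPTI-MEM received compound dilution series for 18-24 h at 37°C.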

[5] = qHTS assay for small molecule antagonists of peroxisome proliferator-activated receptor delta signaling (AID 588535); conditions: HEK293T PPARd-UAS-bla, beta-lactamase FRET ratio, 18 h; 460 nm channel;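 note: cells co-treated with a PPAR-delta agonist as stimulator during compound exposure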
In short: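 Antagonist-mode beta-lactamase reporter (GeneBLAzer PPAR-delta-UAS-bla) in HEK293T cells, 2% charcoal/dextran FBS, 4000 cells/well. Compound titrations, 18 h at 37 C; CCF4 ratio read, IC50 and efficacy from Hill fits.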

[6] = qHTS assay for small molecule agonists of retinoid X receptor alpha signaling (AID 588544); conditions: HEK293T RXRa-UAS-bla, beta-lactamase reporter, 18 h; 530 nm emission
[7] = qHTS Assay for Inhibitors of PDE-IV (AID 607); conditions: HEK293 ACTOne CNG channel cells, membrane potential fluorescence; measured here: parental cell counter-screen;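 note: parental cells stimulated with forskolin 10 µM plus RO 20-1724 100 µM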
In short: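 Live HEK293 cells with a modified cyclic nucleotide-gated (CNG) channel report intracellular cAMP via membrane-potential dye fluorescence (ex 535/em 590 nm). Endogenous PDE-IV was targeted. Compounds were tested at up to 22.9 uM final; RO 20-1724 100 uM served as control.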

[8] = qHTS Validation Assay for Iinhibitors of HIV-1 Budding by Blocking the Interaction of PTAP/TSG101 (AID 485342); conditions: TSG101-PTAP binding, fluorescence polarization, 4-point titration; measured here: FITC channel readout
In short: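 Compound wells held the Tsg101 binding domain (10 uM) and a FITC-conjugated PTAP peptide (50 nM) in buffer at pH 7.5 containing 0.15 M NaCl and 0.01% Tween 20; polarization was recorded after 20 min, r.t.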

[9] = measured here: cell count channel max response
[10] = measured here: lipid channel max response
[11] = measured here: red reporter channel AC50, EF-alpha promoter control reporter in MSC80 mouse Schwann cells
[12] = measured here: CBG/CBR ratio read-out
[13] = measured here: CBR control luciferase (viability counter)
[14] = measured here: green reporter channel AC50, mouse Pmp22 promoter in mouse Schwann cells
Tags give direction and shape of the fitted curve.

Question: Which max response [1, 9] does the source give for `N[C@@H](Cc1ccc(F)cc1)C(=O)O` here?
Answer: The max response was 5.8%.

Question: What about the max response [1, 10] of the same molecule?
Answer: The max response was 5.59%.

Question: What about the AC50 [2, 11] of the same molecule?
Answer: The AC50 was 26.9 µM [falling, full curve].

Question: And the AC50 [3, 12]?
Answer: Its AC50 is 20.6 µM [falling, single point].

Question: And the AC50 [3, 13]?
Answer: Its AC50 is 20.6 µM [falling, single point].

Question: Which results are given for `CC1=C(CC(=O)O)c2cc(F)ccc2/C1=C\c1ccc(S(C)(=O)=O)cc1`?
Answer: max response [1, 9]: 62.3%; max response [1, 10]: 53.2%; AC50 [2, 14]: 75.7 µM [falling, single point]; AC50 [2, 11]: 95.3 µM [falling, single point]

Question: For `O=C(CCCN1CCC(O)(c2cccc(C(F)(F)F)c2)CC1)c1ccc(F)cc1`, which max response [1, 9] is on record?
Answer: Its max response is 37.2%.

Question: What about the max response [1, 10] of the same molecule?
Answer: The max response was 35.9%.

Question: And the AC50 [2, 14]?
Answer: Its AC50 is 42.6 µM [falling, full curve].

Question: And the AC50 [2, 11]?
Answer: Its AC50 is 42.6 µM [falling, partial curve].

Question: For `COc1ccc(Cl)cc1C(=O)NCCc1ccc(S(=O)(=O)NC(=O)NC2CCCCC2)cc1`, which max response [1, 9] is on record?
Answer: The max response was 94.8%.

Question: What about the max response [1, 10] of the same molecule?
Answer: Its max response is 122%.

Question: And the AC50 [2, 11]?
Answer: The AC50 was 84.9 µM [falling, single point].

Question: What about the viability change [4] of the same molecule?
Answer: Its viability change is 0.986%.

Question: And the max response [5]?
Answer: Its max response is 204%.

Question: And the max response [6]?
Answer: Its max response is 41.6%.

Question: With `CC(COc1ccc(/C=C/c2ccccc2)cc1)[N+](C)(C)C` (stereo not drawn) as the molecule, how does the max response [1, 9] read?
Answer: Its max response is -17.2%.

Question: And the max response [1, 10]?
Answer: The max response was -56%.

Question: And the AC50 [2, 14]?
Answer: Its AC50 is 47.8 µM [falling, partial curve].

Question: And the AC50 [2, 11]?
Answer: The AC50 was 75.7 µM [falling, single point].

Question: What about the viability change [4] of the same molecule?
Answer: The viability change was -1.02%.

Question: With `CNCCC=C1c2ccccc2CCc2ccccc21` as the molecule, how does the max response [1, 9] read?
Answer: Its max response is 43%.

Question: What about the max response [1, 10] of the same molecule?
Answer: Its max response is 44.7%.

Question: What about the AC50 [2, 14] of the same molecule?
Answer: The AC50 was 23.9 µM [falling, partial curve].

Question: And the AC50 [2, 11]?
Answer: The AC50 was 26.9 µM [falling, full curve].

Question: And the AC50 [3, 12]?
Answer: Its AC50 is 18.4 µM [falling, single point].

Question: What about the AC50 [4] of the same molecule?
Answer: The AC50 was 29.1 µM [falling, partial curve, poor fit].

Question: And the viability change [4]?
Answer: Its viability change is -21%.

Question: With `NCC(O)c1ccc(O)c(O)c1` (stereo not drawn) as the molecule, how does the max response [1, 9] read?
Answer: The max response was 50.9%.

Question: What about the max response [1, 10] of the same molecule?
Answer: Its max response is 50.3%.

Question: And the AC50 [2, 14]?
Answer: Its AC50 is 84.9 µM [falling, single point].

Question: What about the AC50 [2, 11] of the same molecule?
Answer: Its AC50 is 84.9 µM [falling, single point].

Question: Which results are given for `O=C(O)c1cc([N+](=O)[O-])ccc1NCCCc1ccccc1`?
Answer: AC50 [7]: 15.8 µM [rising, partial curve]; max response [1, 9]: 59.2%; max response [1, 10]: 83.5%; AC50 [2, 11]: 1.35 µM [falling, full curve]; AC50 [3, 13]: 1.3 µM [falling, full curve]; AC50 [4]: 20.6 µM [falling, partial curve, poor fit]; viability change [4]: -31.5%

Question: What does the source list for `CCCN(CCc1ccccc1)C1CCc2c(O)cccc2C1` (stereo not drawn)?
Answer: max response [1, 9]: 51.8%; max response [1, 10]: 54.5%; AC50 [2, 14]: 84.9 µM [falling, single point]; AC50 [2, 11]: 84.9 µM [falling, single point]

Question: With `C=CC1(C)CC(=O)C2(O)C(C)(O1)C(OC(C)=O)C(O)C1C(C)(C)CCC(O)C12C` (stereo not drawn) as the molecule, how does the max response [1, 9] read?
Answer: The max response was 39.7%.

Question: What about the max response [1, 10] of the same molecule?
Answer: The max response was 39%.

Question: And the AC50 [2, 14]?
Answer: Its AC50 is 6.75 µM [rising, full curve].

Question: And the AC50 [2, 11]?
Answer: Its AC50 is 0.0213 µM [falling, full curve, poor fit].

Question: And the AC50 [3, 12]?
Answer: Its AC50 is 14.6 µM [falling, partial curve].

Question: And the AC50 [3, 13]?
Answer: The AC50 was 10.3 µM [rising, partial curve].

Question: Which max response [1, 9] does the source give for `CCN(CC)CC#CCOC(=O)C(O)(c1ccccc1)C1CCCCC1` (stereo not drawn) here?
Answer: Its max response is 41.2%.

Question: And the max response [1, 10]?
Answer: The max response was 42.2%.

Question: And the AC50 [2, 14]?
Answer: The AC50 was 60.1 µM [falling, partial curve].

Question: What about the AC50 [2, 11] of the same molecule?
Answer: The AC50 was 84.9 µM [falling, single point].

Question: With `C=Cc1c(C)c2cc3[nH]c(cc4nc(cc5nc(cc1[nH]2)C(C)=C5CCC(=O)O)C(CCC(=O)O)=C4C)c(C)c3C=C` as the molecule, how does the max response [1, 9] read?
Answer: Its max response is 56.5%.

Question: What about the max response [1, 10] of the same molecule?
Answer: Its max response is 60%.

Question: What about the AC50 [8] of the same molecule?
Answer: Its AC50 is 79.4 µM [falling, partial curve].

Question: And the AC50 [4]?
Answer: The AC50 was 13 µM [falling, single point].

Question: And the viability change [4]?
Answer: The viability change was -37.2%.

Question: What does the source list for `CCCOC(=O)c1c(-c2ccccc2)nc(CC)c(C(=O)SCC)c1CCC`?
Answer: max response [1, 9]: 48.6%; max response [1, 10]: 49.6%; AC50 [2, 14]: 60.1 µM [falling, partial curve]; AC50 [2, 11]: 75.7 µM [falling, partial curve]

Question: Which results are given for `CC(=O)C(C)=O`?
Answer: max response [1, 9]: 35.2%; max response [1, 10]: 32.2%; AC50 [3, 13]: 0.92 µM [rising, full curve, poor fit]
